Data published in the supplement of paper PMC4604168 (melanoma cell lines).
The other results are listed elsewhere or left out. Repeats are few or missing, and single values can be far off.

Tests used:
Assay in all cases: cell count relative to DMSO control; melanoma cells; higher = more viable cells
Conditions in all cases: library dose: low library concentration; 72 h
WM115 = test system: WM115
WM1716 = test system: WM1716
WM1745 = test system: WM1745
WM3526 = test system: WM3526
WM3619 = test system: WM3619
WM451Lu = test system: WM451Lu
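Further: cell number obtained by counting DAPI-stained nuclei in high-throughput microscope images with image analysis software, screen run in 1,536-well plates.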

Row | Compound | cell count (WM115) [%] | cell count (WM1716) [%] | cell count (WM1745) [%] | cell count (WM3526) [%] | cell count (WM3619) [%] | cell count (WM451Lu) [%]
1 | COCC[n+]1c2c(n(Cc3cnccn3)c1C)C(=O)c1ccccc1C2=O + Nc1cccc2c1CN(C1CCC(=O)NC1=O)C2=O [lenalidomide] (first compound 0.0004 µM, partner dose 1 µM) | 78.9 | 86.6 | 89.5 | 95.8 | 103 | 65.4
2 | Clc1ccc(Nc2nnc(Cc3ccncc3)c3ccccc23)cc1 [vatalanib] + COc1ccc2c(c1)CCC1C2CCC2(C)C(NCCCCCCN3C(=O)C=CC3=O)CCC12 [U73122] (first compound 2 µM, partner dose 0.4 µM) | 64.9 | 72.3 | 90.1 | 53.9 | 77.4 | 86.2
3 | C#Cc1cccc(Nc2ncnc3cc(OCCOC)c(OCCOC)cc23)c1 [erlotinib] + COC(=O)c1sccc1S(=O)(=O)Nc1ccc(Nc2ccccc2)cc1OC [GSK0660] (first compound 0.8 µM, partner dose 1 µM) | 104 | 110 | 89 | 102 | 116 | 111
4 | OCc1c[nH]c2ccccc12 [Indole-3-carbinol] + CCc1ccc(CCOc2ccc(CC3SC(=O)NC3=O)cc2)nc1 [pioglitazone] (first compound 0.8 µM, partner dose 2 µM) | 96.8 | 88.6 | 96.2 | 108 | 102 | 83.9
5 | C#Cc1cccc(Nc2ncnc3cc(OCCOC)c(OCCOC)cc23)c1 [erlotinib] + O=C(Nc1ccccc1)c1cc([N+](=O)[O-])ccc1Cl [GW9662] (first compound 0.8 µM, partner dose 2 µM) | 99.4 | 88.3 | 71 | 62.4 | 105 | 111
6 | C#Cc1cccc(Nc2ncnc3cc(OCCOC)c(OCCOC)cc23)c1 [erlotinib] + Nc1cccc2c1CN(C1CCC(=O)NC1=O)C2=O [lenalidomide] (first compound 0.8 µM, partner dose 1 µM) | 100 | 95.2 | 88.1 | 102 | 84.9 | 116
7 | Clc1ccc(Nc2nnc(Cc3ccncc3)c3ccccc23)cc1 [vatalanib] + Nc1cccc2c1CN(C1CCC(=O)NC1=O)C2=O [lenalidomide] (first compound 2 µM, partner dose 1 µM) | 99.9 | 109 | 113 | 101 | 106 | 108
8 | OCc1c[nH]c2ccccc12 [Indole-3-carbinol] + COc1cc2ncnc(Nc3ccc(Oc4ccccc4)cc3)c2cc1OC [SrcI1] (first compound 0.8 µM, partner dose 2 µM) | 105 | 126 | 90.1 | 102 | 107 | 105
9 | Clc1ccc(Nc2nnc(Cc3ccncc3)c3ccccc23)cc1 [vatalanib] + C#Cc1cccc(Nc2ncnc3cc(OCCOC)c(OCCOC)cc23)c1 [erlotinib] (first compound 2 µM, partner dose 0.8 µM) | 100 | 98.9 | 77.3 | 91.3 | 87.6 | 92.4
10 | OCc1c[nH]c2ccccc12 [Indole-3-carbinol] + C#Cc1cccc(Nc2ncnc3cc(OCCOC)c(OCCOC)cc23)c1 [erlotinib] (first compound 0.8 µM, partner dose 0.8 µM) | 89.3 | 85.7 | 84.9 | 89.1 | 105 | 98.2
11 | OCc1c[nH]c2ccccc12 [Indole-3-carbinol] + Cn1nnc2c(C(N)=O)ncn2c1=O [temozolomide] (first compound 0.8 µM, partner dose 2 µM) | 102 | 91.9 | 94.2 | 89.8 | 122 | 98.1
12 | Cn1c(Nc2ccc(C(F)(F)F)cc2)nc2cc(Oc3ccnc(-c4ncc(C(F)(F)F)[nH]4)c3)ccc21 + CC1(C)NC(=O)N(c2ccc([N+](=O)[O-])c(C(F)(F)F)c2)C1=O [nilutamide] (first compound 0.08 µM, partner dose 1 µM) | 52.5 | 68.6 | 53.7 | 50.6 | 69.2 | 91.1
13 | O=C(CCCCCCC(=O)Nc1ccccc1)NO [vorinostat] + COC(=O)c1sccc1S(=O)(=O)Nc1ccc(Nc2ccccc2)cc1OC [GSK0660] (first compound 0.08 µM, partner dose 1 µM) | 89 | 112 | 105 | 96.7 | 118 | 95.1
14 | COCC[n+]1c2c(n(Cc3cnccn3)c1C)C(=O)c1ccccc1C2=O + O=C1NC(=O)/C(=C/c2ccc(-c3ccc(F)cc3O)o2)S1 [AS252424] (first compound 0.0004 µM, partner dose 1 µM) | 91.4 | 96.2 | 98.4 | 90.4 | 120 | 103
15 | Clc1ccc(Nc2nnc(Cc3ccncc3)c3ccccc23)cc1 [vatalanib] + O=C(O)C(=O)Nc1sc2c(c1C(=O)O)CCNC2 [TCS401] (first compound 2 µM, partner dose 1.66667 µM) | 102 | 97.3 | 83.8 | 107 | 112 | 95.7
16 | Nc1cccc2c1CN(C1CCC(=O)NC1=O)C2=O (configuration not stated) [lenalidomide] + Cc1cc([N+](=O)[O-])ccc1NS(=O)(=O)c1cc(Cl)ccc1Cl [FH535] (first compound 1 µM, partner dose 1 µM) | 88.2 | 97.6 | 89.8 | 96.4 | 108 | 125
17 | O=C(CCCCCCC(=O)Nc1ccccc1)NO [vorinostat] + C=CCn1c(=O)c2cnc(Nc3ccc(N4CCN(C)CC4)cc3)nc2n1-c1cccc(C(C)(C)O)n1 [MK1775] (first compound 0.08 µM, partner dose 0.02 µM) | 84.6 | 113 | 88.8 | 95.5 | 97 | 83
18 | Cn1c(Nc2ccc(C(F)(F)F)cc2)nc2cc(Oc3ccnc(-c4ncc(C(F)(F)F)[nH]4)c3)ccc21 + COc1cc(N2CCC(N3CCN(C)CC3)CC2)ccc1Nc1ncc(Cl)c(Nc2ccccc2S(=O)(=O)C(C)C)n1 [NVP-TAE684] (first compound 0.08 µM, partner dose 0.08 µM) | 58.9 | 91 | 64 | 44.1 | 72 | 67.3
19 | Nc1cccc2c1CN(C1CCC(=O)NC1=O)C2=O (configuration not stated) [lenalidomide] + Oc1nc(-c2ccc(C(F)(F)F)cc2)nc2c1CSCC2 [XAV939] (first compound 1 µM, partner dose 2 µM) | 101 | 67.7 | 86 | 107 | 68 | 88.5
20 | Clc1ccc(Nc2nnc(Cc3ccncc3)c3ccccc23)cc1 [vatalanib] + Cn1nnc2c(C(N)=O)ncn2c1=O [temozolomide] (first compound 2 µM, partner dose 2 µM) | 95.9 | 98 | 86.2 | 89 | 71.3 | 68
21 | COCC[n+]1c2c(n(Cc3cnccn3)c1C)C(=O)c1ccccc1C2=O + COc1cc(N2CCC(N3CCN(C)CC3)CC2)ccc1Nc1ncc(Cl)c(Nc2ccccc2S(=O)(=O)C(C)C)n1 [NVP-TAE684] (first compound 0.0004 µM, partner dose 0.08 µM) | 86.2 | 80.1 | 104 | 88.2 | 104 | 64
22 | OCc1c[nH]c2ccccc12 [Indole-3-carbinol] + COc1ccc(Cl)c(Nc2nc3ccccc3nc2NS(=O)(=O)c2cccc(NC(=O)C(C)(C)N)c2)c1 [XL147] (first compound 0.8 µM, partner dose 0.8 µM) | 97.3 | 91 | 115 | 105 | 116 | 96.3
23 | O=C(CCCCCCC(=O)Nc1ccccc1)NO [vorinostat] + C[C@@H]1CCN(C(=O)CC#N)C[C@@H]1N(C)c1ncnc2[nH]ccc12 [CP690550] (first compound 0.08 µM, partner dose 1 µM) | 104 | 95.4 | 104 | 104 | 93.1 | 83.1
24 | Nc1cccc2c1CN(C1CCC(=O)NC1=O)C2=O (configuration not stated) [lenalidomide] + CC(C)(C)c1cnc(CSc2cnc(NC(=O)C3CCNCC3)s2)o1 [SNS-032] (first compound 1 µM, partner dose 0.01 µM) | 107 | 88.1 | 83.8 | 110 | 89.3 | 108
25 | Clc1ccc(Nc2nnc(Cc3ccncc3)c3ccccc23)cc1 [vatalanib] + O=C(CCCCCCC(=O)Nc1ccccc1)NO [vorinostat] (first compound 2 µM, partner dose 0.08 µM) | 86.8 | 94 | 90.9 | 86 | 88.4 | 88.5
26 | Cn1c(Nc2ccc(C(F)(F)F)cc2)nc2cc(Oc3ccnc(-c4ncc(C(F)(F)F)[nH]4)c3)ccc21 + COc1ccc(-c2ccc3c(N4CCOCC4)nc(N4C[C@@H](C)O[C@@H](C)C4)nc3n2)cc1CO [KU0063794] (first compound 0.08 µM, partner dose 0.02 µM) | 43.8 | 56.1 | 57.8 | 43.8 | 57.2 | 81.7
27 | Nc1cccc2c1CN(C1CCC(=O)NC1=O)C2=O (configuration not stated) [lenalidomide] + Cn1cncc1[C@@](N)(c1ccc(Cl)cc1)c1ccc2c(c1)c(-c1cccc(Cl)c1)cc(=O)n2C [tipifarnib] (first compound 1 µM, partner dose 0.01 µM) | 85.6 | 78.8 | 83.7 | 76 | 86.6 | 95.9
